{"source": "PubChem BioAssay AID686979", "about": "(National Center for Advancing Translational Sciences (NCATS), 2013)", "note": "Values joined by “and” are separate entries in the source; they are usually repeats but may differ in a detail not shown here. Equal entries are not always repeated. Screen size: about 420,000 compounds; about 50,000 (12%) were called active. Inconclusive results, whose numbers are uncertain, are shown with a selection of clear calls. Calls come from the whole dose curve; as a rule, active = well fitted inhibition curve with a large enough effect; inconclusive = small, poorly fitted or top-dose-only effect; inactive = flat fitted curve, though single readings scatter. Where the call is inconclusive, the potency comes from a doubtful curve fit. Potency is the fitted concentration of half-maximal effect; tags give direction and shape of the fitted curve."}
{"test": "qHTS for Inhibitors of human tyrosyl-DNA phosphodiesterase 1 (TDP1): qHTS in cells in presence of CPT; note: nearly all actives have a fitted effect of over 55% in size", "settings": "chicken DT40 Tdp1-/-;hTDP1 cells + 20 nM CPT, ATP luminescence, 48 h; series mostly up to 46.2 µM", "summary_of_the_method": "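Cell growth measured by CellTiter-Glo luminescence after a minimum 48 h, 37 C compound exposure with 20 nM CPT in Tdp1-knockout DT40 cells stably expressing hTDP1, seeded 400/well; qHTS titration format.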"}
{"smiles": "O=C(COC(=O)c1cccs1)NCCc1ccc(F)cc1", "Potency": "inactive"}
{"smiles": "Cc1cc(C(=O)CN2C(=O)NC3(CCCc4ccccc43)C2=O)c(C)n1Cc1ccccc1", "note": "(stereo not drawn)", "Potency": "inconclusive: 29.1 µM [inhibitor, single point]"}
{"smiles": "Cc1ccc(Cn2c(S(=O)(=O)O)nc3ccccc32)cc1", "Potency": "inactive"}
{"smiles": "COc1ccc([C@H]2CC(=O)C=C(c3cc(Cl)ccc3C)C2)cc1", "Potency": "inconclusive: 20.6 µM [inhibitor, single point]"}
{"smiles": "Cn1nc(C(F)(F)F)c(CNC(=O)C(C)(C)CCl)c1N1CCOCC1", "Potency": "inactive"}
{"smiles": "Cc1cc(-c2ccc(C)c(S(=O)(=O)N(C(C)C)C3CCCCC3)c2)on1", "Potency": "active: 20.6 µM"}
{"smiles": "CCc1nc2ccccc2c(C(=O)OCc2nnc(-c3ccccc3)o2)c1C", "Potency": "active: 18.4 µM"}
{"smiles": "CN1C(=O)NC2(O)C(=O)c3ccccc3C12O", "note": "(stereo not drawn)", "Potency": "active: 11.6 µM"}
{"smiles": "CCOC(=O)c1ccc(CN(Cc2ccc(Cl)cc2Cl)S(=O)(=O)c2cccc(Cl)c2)cc1", "Potency": "inconclusive: 29.1 µM [inhibitor, single point]"}
{"smiles": "O=C(NC1CCN(Cc2ccccc2)CC1)c1cccc(NS(=O)(=O)c2ccc(Br)cc2)c1", "Potency": "active: 18.4 µM"}
{"smiles": "Cc1ccc(C)c(S(=O)(=O)N2CCN(CC(=O)NC(C)c3ccccc3)CC2)c1", "note": "(stereo not drawn)", "Potency": "inactive"}
{"smiles": "Cc1noc(C)c1-c1nc(NCc2cccs2)c2ccccc2n1", "Potency": "inconclusive: 29.1 µM [inhibitor, single point]"}
{"smiles": "CCCCC1C(=O)N(c2ccccc2)N(c2ccc(O)cc2)C1=O", "note": "(stereo not drawn)", "Potency": "active: 10.1 µM and active: 5.17 µM and active: 1.03 µM"}
{"smiles": "N[C@H]1CONC1=O", "Potency": "inactive"}
{"smiles": "Cc1nc(NC(=O)c2ccco2)sc1-c1csc(Nc2ccc(Cl)cc2)n1", "Potency": "active: 20.6 µM"}
{"smiles": "COc1ccc(NS(=O)(=O)c2cccc(C(=O)N(C)Cc3cccs3)c2)cc1", "Potency": "inconclusive: 29.1 µM [inhibitor, single point]"}
{"smiles": "O=C(c1cc2ccccc2o1)N1CCN(CCOc2ccccc2)CC1", "Potency": "inconclusive: 20.6 µM [inhibitor, single point]"}
{"smiles": "c1ccc2c(c1)nnn2-c1ccncc1", "Potency": "inconclusive: 6.51 µM [inhibitor, single point]"}
{"smiles": "COc1ccc(CN(C2CCCC2)S(=O)(=O)c2ccc(-n3cnnn3)cc2)cc1", "Potency": "inconclusive: 14.6 µM [inhibitor, partial curve]"}
{"smiles": "CCSc1nnc(NC(=O)CSc2nnc(CNC(=O)c3ccccc3F)o2)s1", "Potency": "inactive"}
{"smiles": "CC(=O)Nc1cccc(C(=O)/C=C/c2ccc(N(C)C)cc2)c1", "Potency": "inactive"}
{"smiles": "O=S1(=O)N=C(Nc2nc3c(s2)CCCC3)c2ccccc21", "Potency": "active: 6.51 µM"}
{"smiles": "Oc1ccccc1C1=NOC(O)(C(F)F)C1", "note": "(stereo not drawn)", "Potency": "inactive"}
{"smiles": "COc1ccccc1CNC(=O)C1CCN(S(=O)(=O)c2ccc(-n3cnnn3)cc2)CC1", "Potency": "inactive"}
{"smiles": "CC(=O)Nc1ccc2nc(SCC(=O)N3CCOCC3)sc2c1", "Potency": "inactive"}
{"smiles": "O=[N+]([O-])c1ccc(C=NN2CCCCCC2)cc1", "Potency": "inconclusive: 29.1 µM [inhibitor, single point]"}
{"smiles": "Cc1cccc(-c2cc(C(=O)O)c3c(-c4ccc(F)cc4)[nH]nc3n2)c1", "Potency": "inactive"}
{"smiles": "Clc1c(Cl)c(Cl)c2n[nH]nc2c1Cl", "Potency": "inactive"}
{"smiles": "CC1CC(C)CN(S(=O)(=O)N2CCCC(C(=O)NCCc3ccc(Cl)cc3)C2)C1", "note": "(stereo not drawn)", "Potency": "inconclusive: 20.6 µM [inhibitor, single point]"}
{"smiles": "Cc1ccc(NC(=O)c2ccccc2N(C)S(C)(=O)=O)cc1C", "Potency": "inactive"}
{"smiles": "COc1ccc(/C=N/Nc2nc(Nc3ccccc3)nc(N3CCCC3)n2)cc1[N+](=O)[O-]", "Potency": "inconclusive: 18.4 µM [inhibitor, single point]"}
{"smiles": "CC(=O)c1c(OCC(=O)O)ccc2c(C)cc(=O)oc12", "Potency": "inactive"}
{"smiles": "Cc1c(Cl)cccc1N=Cc1ccc([N+](=O)[O-])s1", "Potency": "inconclusive: 29.1 µM [inhibitor, single point]"}
{"smiles": "Cc1ccc(Nc2nc(N)nc(CCl)n2)cc1", "Potency": "active: 16.4 µM"}
{"smiles": "C=CCn1c(=O)c2c(nc3n2CCCN3CCc2ccccc2)n(C)c1=O", "Potency": "inactive"}
{"smiles": "CC(=O)Cn1c(N2CCC(Cc3ccccc3)CC2)nc2c1c(=O)[nH]c(=O)n2C", "Potency": "inconclusive: 14.6 µM [inhibitor, partial curve]"}
{"smiles": "CC1CCCCN1Cc1nc2c(c(=O)n(C)c(=O)n2C)n1CCc1ccccc1", "note": "(stereo not drawn)", "Potency": "inconclusive: 9.2 µM [inhibitor, partial curve]"}
{"smiles": "CN(C)C1=NC[C@H](Cc2ccccc2)N1CCC1CCCC1", "Potency": "active: 20.6 µM"}
{"smiles": "O=C(C1CCCN(Cc2ccccc2)C1)N1CCc2ccccc2C1", "note": "(stereo not drawn)", "Potency": "inconclusive: 16.4 µM [inhibitor, single point]"}
{"smiles": "CN(Cc1cccs1)C(=O)COc1cccc2c1OC(C)(C)C2", "Potency": "inconclusive: 29.1 µM [inhibitor, single point]"}
{"smiles": "COc1ccc(-c2sc3ccc(N4CCOCC4)cc3c2-c2ccc(O)cc2)cc1", "Potency": "inconclusive: 25.9 µM [inhibitor, single point]"}
{"smiles": "CCn1c(SCC(=O)Nc2nc(-c3ccccc3)cs2)nnc1-c1ccccc1", "Potency": "inconclusive: 29.1 µM [inhibitor, single point]"}
{"smiles": "Nc1ccc2nc(CCCCc3nc4ccccc4[nH]3)[nH]c2c1", "Potency": "inactive"}
{"smiles": "O=C(NCCSc1ccccc1)c1cncc(Br)c1", "Potency": "inconclusive: 20.6 µM [inhibitor, single point]"}
{"smiles": "O=C(CCBr)N1CCN(C(=O)CCBr)CC1", "Potency": "inactive"}
{"smiles": "COc1ccc(C)cc1NC(=O)c1ccccc1N(C)S(=O)(=O)c1ccccc1", "Potency": "inconclusive: 23.1 µM [inhibitor, single point]"}
{"smiles": "CC(=O)c1ccc(NC(=O)c2nn(C)c3c2CS(=O)(=O)c2ccccc2-3)cc1", "Potency": "inactive"}
{"smiles": "CCc1cc(C(=O)NCC(c2cccs2)N2CCOCC2)sc1C", "note": "(stereo not drawn)", "Potency": "inconclusive: 29.1 µM [inhibitor, single point]"}
{"smiles": "COc1cc2nc(CN3CCN(S(=O)(=O)c4cc(C)ccc4C)CC3)[nH]c(=O)c2cc1OC", "Potency": "inconclusive: 23.1 µM [inhibitor, single point]"}
{"smiles": "CCCN1C2CCCC1CC(NC(=S)NCCCOCC)C2", "note": "(stereo not drawn)", "Potency": "inactive"}
{"smiles": "CCCc1c2c(cc3c(=O)cc(C(=O)OCC)oc13)CCCC2", "Potency": "inconclusive: 18.4 µM [inhibitor, partial curve]"}
{"smiles": "O=C(C1CCN(S(=O)(=O)c2cccc3cccnc23)CC1)N1CCN(c2ccccn2)CC1", "Potency": "inconclusive: 29.1 µM [inhibitor, single point]"}
{"smiles": "CCc1nc(SCC(=O)Nc2cc(C)on2)c2c(=O)n(C)c(=O)n(C)c2n1", "Potency": "inconclusive: 29.1 µM [inhibitor, single point]"}
{"smiles": "O=C(COc1cc2oc(=O)cc(-c3ccccc3)c2cc1Cl)NCc1ccccn1", "Potency": "inconclusive: 29.1 µM [inhibitor, single point]"}
{"smiles": "Nc1ncnc(NC2CCS(=O)(=O)C2)c1[N+](=O)[O-]", "note": "(stereo not drawn)", "Potency": "inconclusive: 29.1 µM [inhibitor, single point]"}
{"smiles": "CCOc1ccc(NS(=O)(=O)c2ccc(C(=O)NCC3(N4CCCCC4)CCCCC3)cc2)cc1", "Potency": "inconclusive: 29.1 µM [inhibitor, partial curve, poor fit]"}
{"smiles": "CCS(=O)(=O)N1CCN(Cc2ccc([N+](=O)[O-])cc2)CC1", "Potency": "inconclusive: 20.6 µM [inhibitor, partial curve]"}
{"smiles": "N#CCn1c2ccccc2c2nc3ccccc3nc21", "Potency": "inconclusive: 23.1 µM [inhibitor, single point]"}
{"smiles": "C=C[C@@](C)(O)CC[C@@H]1[C@@]2(C)CCCC(C)(C)[C@@H]2CC[C@@]1(C)O", "Potency": "inconclusive: 33.5 µM [inhibitor, single point] and inconclusive: 29.1 µM [inhibitor, single point]"}
{"smiles": "C=CCN(c1ccccc1OC)S(=O)(=O)c1cccc(C(=O)OCC(=O)c2c(N)n(C)c(=O)n(C)c2=O)c1", "Potency": "inconclusive: 18.4 µM [inhibitor, single point]"}
{"smiles": "O=C(OCc1csc(-c2ccccc2)n1)c1ccc(O)cc1", "Potency": "inactive"}
{"smiles": "CC(C)Cc1ccc(C(C)C(=O)Nc2ccccc2O)cc1", "note": "(stereo not drawn)", "Potency": "active: 8.2 µM"}
{"smiles": "CCOC(=O)c1sc(NC(=O)CSc2nnc(Cc3ccccc3)o2)c(C#N)c1C", "Potency": "active: 11.6 µM"}
{"smiles": "COc1ccc(NC(=O)C(=O)c2cn(CC(=O)N3CCCC3)c3ccccc23)cc1OC", "Potency": "active: 16.4 µM"}
{"smiles": "Cc1ccc(-c2cn3c(n2)sc2cc(C(=O)NC4CCCCC4)ccc23)cc1", "Potency": "active: 4.11 µM"}
{"smiles": "c1ccc(CNc2ncnc3c2ncn3Cc2ccccc2)cc1", "Potency": "inconclusive: 35.5 µM [inhibitor, single point]"}
{"smiles": "O=C(Nc1ccc(Cl)c(S(=O)(=O)N2CCOCC2)c1)c1ccc2c(c1)OCO2", "Potency": "inconclusive: 18.4 µM [inhibitor, partial curve, poor fit]"}
{"smiles": "Cc1ccc(C(=O)NC(=S)Nc2cccc(NC(=O)c3ccccc3)c2)cc1[N+](=O)[O-]", "Potency": "inconclusive: 23.1 µM [inhibitor, single point]"}
{"smiles": "COc1cccc(C2CC(c3ccccc3Cl)Nc3ncnn32)c1", "note": "(stereo not drawn)", "Potency": "active: 25.9 µM"}
{"smiles": "COc1ccc(-c2ccc(=O)n(CC(=O)Nc3ccc4c(c3)OCCO4)n2)cc1", "Potency": "inconclusive: 20.6 µM [inhibitor, partial curve, poor fit]"}
{"smiles": "Cc1ccc(C(=O)Nc2cccc(-c3ccc(N4CCOCC4)nn3)c2)cc1C", "Potency": "inconclusive: 20.6 µM [inhibitor, single point]"}
{"smiles": "COc1ccc(CCNC(=O)CCn2c(=O)c3cccn3c3ccc(F)cc32)cc1OC", "Potency": "inconclusive: 29.1 µM [inhibitor, single point]"}
{"smiles": "O=C1CSC(=S)N1Cc1ccccc1", "Potency": "inconclusive: 23.1 µM [inhibitor, single point]"}
